This passage reports binding results from article PMC8894463.

The chains behind the UniProt entries cited, without tags or fusion partners.
UniProt Q04206: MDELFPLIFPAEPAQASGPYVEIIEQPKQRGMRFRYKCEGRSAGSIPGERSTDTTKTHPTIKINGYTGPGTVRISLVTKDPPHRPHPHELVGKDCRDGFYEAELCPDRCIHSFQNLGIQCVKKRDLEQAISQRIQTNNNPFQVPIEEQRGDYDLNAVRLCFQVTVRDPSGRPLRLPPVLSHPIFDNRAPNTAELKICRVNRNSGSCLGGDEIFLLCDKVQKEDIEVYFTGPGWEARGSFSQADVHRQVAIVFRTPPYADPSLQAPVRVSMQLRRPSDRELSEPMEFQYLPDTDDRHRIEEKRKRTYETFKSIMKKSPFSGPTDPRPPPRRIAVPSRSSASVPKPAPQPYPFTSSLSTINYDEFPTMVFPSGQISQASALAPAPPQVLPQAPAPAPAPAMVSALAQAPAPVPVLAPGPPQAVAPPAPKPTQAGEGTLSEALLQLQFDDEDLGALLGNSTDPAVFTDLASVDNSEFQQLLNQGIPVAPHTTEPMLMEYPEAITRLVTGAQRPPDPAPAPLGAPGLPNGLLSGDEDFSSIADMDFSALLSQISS
UniProt Q99836: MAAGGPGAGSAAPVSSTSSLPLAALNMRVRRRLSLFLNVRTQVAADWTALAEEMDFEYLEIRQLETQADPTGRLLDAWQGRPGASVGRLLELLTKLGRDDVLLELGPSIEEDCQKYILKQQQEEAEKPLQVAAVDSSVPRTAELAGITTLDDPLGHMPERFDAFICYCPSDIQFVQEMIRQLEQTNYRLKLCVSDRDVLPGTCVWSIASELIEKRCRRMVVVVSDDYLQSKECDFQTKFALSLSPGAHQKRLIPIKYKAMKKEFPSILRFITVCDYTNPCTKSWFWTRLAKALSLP

No constants are given. Whether binding was seen depends on the method and setting. In cells and extracts the contact can be indirect. Some binding calls cover weakened binding; strength is not graded here. For some assays here: Tags and fused reporters may be left off the sequences shown.

Assay [1] concerns the target T1, HA-tagged wild-type TRIM45 (tripartite motif-containing 45) (UniProt Q9H8W5).
T1 sequence: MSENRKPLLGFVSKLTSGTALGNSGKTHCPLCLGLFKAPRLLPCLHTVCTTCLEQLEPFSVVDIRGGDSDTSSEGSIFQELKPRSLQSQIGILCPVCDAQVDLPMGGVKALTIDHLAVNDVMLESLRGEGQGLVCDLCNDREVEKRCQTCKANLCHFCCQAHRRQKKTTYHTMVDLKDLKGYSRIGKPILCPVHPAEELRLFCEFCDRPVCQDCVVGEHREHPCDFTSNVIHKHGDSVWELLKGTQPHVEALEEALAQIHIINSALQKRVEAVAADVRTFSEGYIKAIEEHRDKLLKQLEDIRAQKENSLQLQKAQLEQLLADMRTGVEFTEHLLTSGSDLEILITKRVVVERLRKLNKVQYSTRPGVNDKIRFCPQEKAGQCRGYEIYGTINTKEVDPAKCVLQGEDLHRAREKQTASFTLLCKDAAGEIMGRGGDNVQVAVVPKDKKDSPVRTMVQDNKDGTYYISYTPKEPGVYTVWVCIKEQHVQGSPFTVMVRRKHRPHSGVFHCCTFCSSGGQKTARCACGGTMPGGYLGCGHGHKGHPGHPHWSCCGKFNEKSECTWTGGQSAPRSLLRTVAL
The assay is described as follows: co-IP; HEK293T cells co-transfected with HA-TRIM45 and Flag-tagged partners, or with TAB2 or TRIM45 deletion mutants and the tagged partner (Fig. 3b, f, g); which protein was precipitated not given.

For assay [2], the target named is T2, Flag-tagged TAK1 (UniProt O43318).
T2 sequence: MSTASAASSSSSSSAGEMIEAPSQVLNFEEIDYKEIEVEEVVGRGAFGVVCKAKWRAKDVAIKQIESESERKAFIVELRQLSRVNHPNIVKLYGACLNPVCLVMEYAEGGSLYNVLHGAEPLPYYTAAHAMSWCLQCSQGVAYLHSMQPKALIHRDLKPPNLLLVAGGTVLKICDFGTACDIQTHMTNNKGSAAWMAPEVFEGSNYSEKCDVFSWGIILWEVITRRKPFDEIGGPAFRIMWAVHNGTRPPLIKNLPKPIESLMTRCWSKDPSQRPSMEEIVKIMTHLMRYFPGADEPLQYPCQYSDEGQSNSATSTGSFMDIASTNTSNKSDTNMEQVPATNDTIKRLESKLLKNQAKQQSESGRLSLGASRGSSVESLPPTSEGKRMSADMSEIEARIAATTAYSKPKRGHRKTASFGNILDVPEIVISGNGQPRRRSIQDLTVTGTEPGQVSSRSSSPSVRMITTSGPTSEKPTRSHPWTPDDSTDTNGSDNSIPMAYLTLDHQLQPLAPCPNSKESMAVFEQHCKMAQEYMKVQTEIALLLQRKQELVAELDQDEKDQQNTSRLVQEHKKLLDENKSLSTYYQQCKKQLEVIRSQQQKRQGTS
The assay is described as follows: co-IP; HEK293T cells transfected with His-Ub, Flag-TAK1 and HA-TRIM45 together with Myc-TAB2 or K656R; IP with anti-Flag beads, then immunoblot (Fig. 5g).

Assay [3] concerns the target T3, TAB2 in HEK293T cells (Fig. 3d, e; construct not stated) (UniProt Q9NYJ8).
T3 sequence: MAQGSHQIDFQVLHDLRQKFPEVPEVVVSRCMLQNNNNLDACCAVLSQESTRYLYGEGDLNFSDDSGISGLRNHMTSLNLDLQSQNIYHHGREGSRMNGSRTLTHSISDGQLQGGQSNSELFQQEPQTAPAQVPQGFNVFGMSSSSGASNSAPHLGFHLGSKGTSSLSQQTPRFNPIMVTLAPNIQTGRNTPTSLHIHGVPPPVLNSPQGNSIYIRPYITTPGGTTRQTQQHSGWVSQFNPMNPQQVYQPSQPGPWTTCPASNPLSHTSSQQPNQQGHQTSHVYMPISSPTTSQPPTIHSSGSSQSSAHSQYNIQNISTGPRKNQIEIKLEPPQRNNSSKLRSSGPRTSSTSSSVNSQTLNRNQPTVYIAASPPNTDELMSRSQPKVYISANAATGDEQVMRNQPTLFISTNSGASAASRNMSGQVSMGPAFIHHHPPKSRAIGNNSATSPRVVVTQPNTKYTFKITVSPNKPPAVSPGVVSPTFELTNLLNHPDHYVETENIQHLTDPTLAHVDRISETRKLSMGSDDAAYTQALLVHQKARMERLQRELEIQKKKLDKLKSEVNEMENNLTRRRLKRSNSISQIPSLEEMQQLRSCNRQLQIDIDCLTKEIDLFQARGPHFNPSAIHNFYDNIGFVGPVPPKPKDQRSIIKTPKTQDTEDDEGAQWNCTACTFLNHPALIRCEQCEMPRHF
Description: co-IP; HEK293T cells with TRIM45 overexpression or TRIM45 knockdown, after OGD/R (Fig. 3d, e).

In the case of “Flag-tagged p65 (from UniProt Q04206 1-551)”, the binding entry in assay [1] is on record as “no binding”.

Take “Flag-tagged MyD88 (from UniProt Q99836 1-296)”: in assay [1], the binding entry is “no binding”.

B1: Myc-tagged TAB2 (protein, UniProt Q9NYJ8 1-693)
chain: MAQGSHQIDFQVLHDLRQKFPEVPEVVVSRCMLQNNNNLDACCAVLSQESTRYLYGEGDLNFSDDSGISGLRNHMTSLNLDLQSQNIYHHGREGSRMNGSRTLTHSISDGQLQGGQSNSELFQQEPQTAPAQVPQGFNVFGMSSSSGASNSAPHLGFHLGSKGTSSLSQQTPRFNPIMVTLAPNIQTGRNTPTSLHIHGVPPPVLNSPQGNSIYIRPYITTPGGTTRQTQQHSGWVSQFNPMNPQQVYQPSQPGPWTTCPASNPLSHTSSQQPNQQGHQTSHVYMPISSPTTSQPPTIHSSGSSQSSAHSQYNIQNISTGPRKNQIEIKLEPPQRNNSSKLRSSGPRTSSTSSSVNSQTLNRNQPTVYIAASPPNTDELMSRSQPKVYISANAATGDEQVMRNQPTLFISTNSGASAASRNMSGQVSMGPAFIHHHPPKSRAIGNNSATSPRVVVTQPNTKYTFKITVSPNKPPAVSPGVVSPTFELTNLLNHPDHYVETENIQHLTDPTLAHVDRISETRKLSMGSDDAAYTQALLVHQKARMERLQRELEIQKKKLDKLKSEVNEMENNLTRRRLKRSNSISQIPSLEEMQQLRSCNRQLQIDIDCLTKEIDLFQARGPHFNPSAIHNFYDNIGFVGPVPPKPKDQRSIIKTPKTQDTEDDEGAQWNCTACTFLNHPALIRCEQCEMPRHF
As to B1, the binding result in assay [2] is listed as “binds”.

B2: Myc-tagged TAB2-K656R (protein, UniProt Q9NYJ8 1-693)
chain: MAQGSHQIDFQVLHDLRQKFPEVPEVVVSRCMLQNNNNLDACCAVLSQESTRYLYGEGDLNFSDDSGISGLRNHMTSLNLDLQSQNIYHHGREGSRMNGSRTLTHSISDGQLQGGQSNSELFQQEPQTAPAQVPQGFNVFGMSSSSGASNSAPHLGFHLGSKGTSSLSQQTPRFNPIMVTLAPNIQTGRNTPTSLHIHGVPPPVLNSPQGNSIYIRPYITTPGGTTRQTQQHSGWVSQFNPMNPQQVYQPSQPGPWTTCPASNPLSHTSSQQPNQQGHQTSHVYMPISSPTTSQPPTIHSSGSSQSSAHSQYNIQNISTGPRKNQIEIKLEPPQRNNSSKLRSSGPRTSSTSSSVNSQTLNRNQPTVYIAASPPNTDELMSRSQPKVYISANAATGDEQVMRNQPTLFISTNSGASAASRNMSGQVSMGPAFIHHHPPKSRAIGNNSATSPRVVVTQPNTKYTFKITVSPNKPPAVSPGVVSPTFELTNLLNHPDHYVETENIQHLTDPTLAHVDRISETRKLSMGSDDAAYTQALLVHQKARMERLQRELEIQKKKLDKLKSEVNEMENNLTRRRLKRSNSISQIPSLEEMQQLRSCNRQLQIDIDCLTKEIDLFQARGPHFNPSAIHNFYDNIGFVGPVPPKPKDQRSIIKTPRTQDTEDDEGAQWNCTACTFLNHPALIRCEQCEMPRHF
For B2, the binding result in assay [2] was “binds”.

B3: Flag-tagged IKKβ (enzyme, UniProt O14920 1-756)
chain: MSWSPSLTTQTCGAWEMKERLGTGGFGNVIRWHNQETGEQIAIKQCRQELSPRNRERWCLEIQIMRRLTHPNVVAARDVPEGMQNLAPNDLPLLAMEYCQGGDLRKYLNQFENCCGLREGAILTLLSDIASALRYLHENRIIHRDLKPENIVLQQGEQRLIHKIIDLGYAKELDQGSLCTSFVGTLQYLAPELLEQQKYTVTVDYWSFGTLAFECITGFRPFLPNWQPVQWHSKVRQKSEVDIVVSEDLNGTVKFSSSLPYPNNLNSVLAERLEKWLQLMLMWHPRQRGTDPTYGPNGCFKALDDILNLKLVHILNMVTGTIHTYPVTEDESLQSLKARIQQDTGIPEEDQELLQEAGLALIPDKPATQCISDGKLNEGHTLDMDLVFLFDNSKITYETQISPRPQPESVSCILQEPKRNLAFFQLRKVWGQVWHSIQTLKEDCNRLQQGQRAAMMNLLRNNSCLSKMKNSMASMSQQLKAKLDFFKTSIQIDLEKYSEQTEFGITSDKLLLAWREMEQAVELCGRENEVKLLVERMMALQTDIVDLQRSPMGRKQGGTLDDLEEQARELYRRLREKPRDQRTEGDSQEMVRLLLQAIQSFEKKVRVIYTQLSKTVVCKQKALELLPKVEEVVSLMNEDEKTVVRLQEKRQKELWNLLKIACSKVRGPVSGSPDSMNASRLSQPGQLMSQPSTASNSLPEPAKKSEELVAEAHNLCTLLENAIQDTVREQDQSFTALDWSWLQTEEEEHSCLEQAS
As to B3, the binding entry in assay [1] is reported as “no binding”.

B4: TAK1 in HEK293T cells (Fig. 3d, e; construct not stated) (enzyme, UniProt O43318 1-606)
chain: MSTASAASSSSSSSAGEMIEAPSQVLNFEEIDYKEIEVEEVVGRGAFGVVCKAKWRAKDVAIKQIESESERKAFIVELRQLSRVNHPNIVKLYGACLNPVCLVMEYAEGGSLYNVLHGAEPLPYYTAAHAMSWCLQCSQGVAYLHSMQPKALIHRDLKPPNLLLVAGGTVLKICDFGTACDIQTHMTNNKGSAAWMAPEVFEGSNYSEKCDVFSWGIILWEVITRRKPFDEIGGPAFRIMWAVHNGTRPPLIKNLPKPIESLMTRCWSKDPSQRPSMEEIVKIMTHLMRYFPGADEPLQYPCQYSDEGQSNSATSTGSFMDIASTNTSNKSDTNMEQVPATNDTIKRLESKLLKNQAKQQSESGRLSLGASRGSSVESLPPTSEGKRMSADMSEIEARIAATTAYSKPKRGHRKTASFGNILDVPEIVISGNGQPRRRSIQDLTVTGTEPGQVSSRSSSPSVRMITTSGPTSEKPTRSHPWTPDDSTDTNGSDNSIPMAYLTLDHQLQPLAPCPNSKESMAVFEQHCKMAQEYMKVQTEIALLLQRKQELVAELDQDEKDQQNTSRLVQEHKKLLDENKSLSTYYQQCKKQLEVIRSQQQKRQGTS
With B4, the binding result in assay [3] was “binds”.

B5: TAB1 in HEK293T cells (Fig. 3d, e; construct not stated) (protein, UniProt Q15750 1-504)
chain: MAAQRRSLLQSEQQPSWTDDLPLCHLSGVGSASNRSYSADGKGTESHPPEDSWLKFRSENNCFLYGVFNGYDGNRVTNFVAQRLSAELLLGQLNAEHAEADVRRVLLQAFDVVERSFLESIDDALAEKASLQSQLPEGVPQHQLPPQYQKILERLKTLEREISGGAMAVVAVLLNNKLYVANVGTNRALLCKSTVDGLQVTQLNVDHTTENEDELFRLSQLGLDAGKIKQVGIICGQESTRRIGDYKVKYGYTDIDLLSAAKSKPIIAEPEIHGAQPLDGVTGFLVLMSEGLYKALEAAHGPGQANQEIAAMIDTEFAKQTSLDAVAQAVVDRVKRIHSDTFASGGERARFCPRHEDMTLLVRNFGYPLGEMSQPTPSPAPAAGGRVYPVSVPYSSAQSTSKTSVTLSLVMPSQGQMVNGAHSASTLDEATPTLTNQSPTLTLQSTNTHTQSSSSSSDGGLFRSRPAHSLPPGEDGRVEPYVDFAEFYRLWSVDHGEQSVVTAP
B5: the binding entry in assay [3] is listed as “binds”.

B6: Flag-tagged TAB1 (protein, UniProt Q15750 1-504)
chain: MAAQRRSLLQSEQQPSWTDDLPLCHLSGVGSASNRSYSADGKGTESHPPEDSWLKFRSENNCFLYGVFNGYDGNRVTNFVAQRLSAELLLGQLNAEHAEADVRRVLLQAFDVVERSFLESIDDALAEKASLQSQLPEGVPQHQLPPQYQKILERLKTLEREISGGAMAVVAVLLNNKLYVANVGTNRALLCKSTVDGLQVTQLNVDHTTENEDELFRLSQLGLDAGKIKQVGIICGQESTRRIGDYKVKYGYTDIDLLSAAKSKPIIAEPEIHGAQPLDGVTGFLVLMSEGLYKALEAAHGPGQANQEIAAMIDTEFAKQTSLDAVAQAVVDRVKRIHSDTFASGGERARFCPRHEDMTLLVRNFGYPLGEMSQPTPSPAPAAGGRVYPVSVPYSSAQSTSKTSVTLSLVMPSQGQMVNGAHSASTLDEATPTLTNQSPTLTLQSTNTHTQSSSSSSDGGLFRSRPAHSLPPGEDGRVEPYVDFAEFYRLWSVDHGEQSVVTAP
Regarding B6, in assay [1], the binding result is on record as “no binding”.
